Data on 14 sequences can be found in publication PMC5700166.

The list shows a part of the results, in another mix than the full data. The list includes weakly bound sequences.

In this experiment the target is T1, GST-Nv-NF-kB (Cys allele) (UniProt E5G601).
T1 sequence: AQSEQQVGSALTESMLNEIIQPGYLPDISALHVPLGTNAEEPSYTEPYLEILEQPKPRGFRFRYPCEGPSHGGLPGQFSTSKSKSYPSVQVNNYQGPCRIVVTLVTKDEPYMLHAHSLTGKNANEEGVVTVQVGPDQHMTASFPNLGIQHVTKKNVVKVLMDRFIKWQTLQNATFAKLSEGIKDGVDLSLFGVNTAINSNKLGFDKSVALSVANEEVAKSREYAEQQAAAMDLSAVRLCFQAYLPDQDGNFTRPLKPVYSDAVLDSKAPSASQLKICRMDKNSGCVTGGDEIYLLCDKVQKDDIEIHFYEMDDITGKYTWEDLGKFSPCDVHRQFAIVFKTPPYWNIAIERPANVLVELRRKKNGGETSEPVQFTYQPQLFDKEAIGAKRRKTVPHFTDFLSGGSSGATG
Kind of experiment: protein-binding microarray (PBM). The conditions noted are these: PBM: ~300 nM protein, 6 mM HEPES pH 7.8, 80 mM KCl, 0.5 mM EDTA, 0.5 mM EGTA, 6% glycerol, 35 ng/ul poly-dIdC, 1% milk, 1 h, room temperature; Ap Aiptasia and Nv Nematostella (sea anemones) / Co Capsaspora / Aq Amphimedon (sponge) / Dm Drosophila / Hu human; RHD is the Rel homology domain; high values mean tight binding; most listed sequences are background and not binding sites; double strand, one strand shown.
In the case of “CCGATTAACATCAGGGACTTTAATGATGTTAATCGGGTCTTGATTCGCTTGACGCTGCTG”, the binding signal was found to be 5.92 z-score. For “CCGATTAACATCAAAAATTTCCCTGATGTTAATCGGGTCTTGATTCGCTTGACGCTGCTG”, the binding signal is 8.92 z-score.

“CCGATTAACATCATTTGGGAAAATGATGTTAATCGGGTCTTGATTCGCTTGACGCTGCTG”: the binding signal came out at 3.26 z-score. Next, “CCGATTAACATCAGGGGCCCCCCTGATGTTAATCGGGTCTTGATTCGCTTGACGCTGCTG”: 3.78 z-score.

“CCGATTAACATCAAAATAATCCCTGATGTTAATCGGGTCTTGATTCGCTTGACGCTGCTG”: the binding signal is 4.62 z-score.

In turn, “CCGATTAACATCAAACTTCCCCGTGATGTTAATCGGGTCTTGATTCGCTTGACGCTGCTG” gave a binding signal of 8.41 z-score. Next, “CCGATTAACATCAAAAATCCCTATGATGTTAATCGGGTCTTGATTCGCTTGACGCTGCTG”: 5.21 z-score; “CCGATTAACATCACCCGTTTCCCTGATGTTAATCGGGTCTTGATTCGCTTGACGCTGCTG”: 3.24 z-score; “CCGATTAACATCAGGGGGATAACTGATGTTAATCGGGTCTTGATTCGCTTGACGCTGCTG”: 4.96 z-score. With “CCGATTAACATCACGGGGTGGCCTGATGTTAATCGGGTCTTGATTCGCTTGACGCTGCTG”, the binding signal came to 0.326 z-score. Next, “CCGATTAACATCAGGTTTTCCCATGATGTTAATCGGGTCTTGATTCGCTTGACGCTGCTG”: 3.91 z-score. Next, “CCGATTAACATCACCCTTTCCCCTGATGTTAATCGGGTCTTGATTCGCTTGACGCTGCTG”: 5.19 z-score; “CCGATTAACATCAGGGGGTGGTATGATGTTAATCGGGTCTTGATTCGCTTGACGCTGCTG”: 2.77 z-score; “CCGATTAACATCAGGGGCAGTACTGATGTTAATCGGGTCTTGATTCGCTTGACGCTGCTG”: 1.84 z-score.
